Screen size: about 310,000 compounds; about 14,000 (4.5%) showed an effect of 50% or more. The effect is printed as a negative number. Some of the results follow.
target: human ether-à-go-go-related gene (hERG) potassium channel (human, UniProt Q12809); assay: primary screen, population patch clamp on CHO cells stably expressing hERG
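Note: peak tail current of the secondary pulse compared with the same well before compound.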

human ether-à-go-go-related gene (hERG) potassium channel, sequence (Q12809 whole entry, looked up): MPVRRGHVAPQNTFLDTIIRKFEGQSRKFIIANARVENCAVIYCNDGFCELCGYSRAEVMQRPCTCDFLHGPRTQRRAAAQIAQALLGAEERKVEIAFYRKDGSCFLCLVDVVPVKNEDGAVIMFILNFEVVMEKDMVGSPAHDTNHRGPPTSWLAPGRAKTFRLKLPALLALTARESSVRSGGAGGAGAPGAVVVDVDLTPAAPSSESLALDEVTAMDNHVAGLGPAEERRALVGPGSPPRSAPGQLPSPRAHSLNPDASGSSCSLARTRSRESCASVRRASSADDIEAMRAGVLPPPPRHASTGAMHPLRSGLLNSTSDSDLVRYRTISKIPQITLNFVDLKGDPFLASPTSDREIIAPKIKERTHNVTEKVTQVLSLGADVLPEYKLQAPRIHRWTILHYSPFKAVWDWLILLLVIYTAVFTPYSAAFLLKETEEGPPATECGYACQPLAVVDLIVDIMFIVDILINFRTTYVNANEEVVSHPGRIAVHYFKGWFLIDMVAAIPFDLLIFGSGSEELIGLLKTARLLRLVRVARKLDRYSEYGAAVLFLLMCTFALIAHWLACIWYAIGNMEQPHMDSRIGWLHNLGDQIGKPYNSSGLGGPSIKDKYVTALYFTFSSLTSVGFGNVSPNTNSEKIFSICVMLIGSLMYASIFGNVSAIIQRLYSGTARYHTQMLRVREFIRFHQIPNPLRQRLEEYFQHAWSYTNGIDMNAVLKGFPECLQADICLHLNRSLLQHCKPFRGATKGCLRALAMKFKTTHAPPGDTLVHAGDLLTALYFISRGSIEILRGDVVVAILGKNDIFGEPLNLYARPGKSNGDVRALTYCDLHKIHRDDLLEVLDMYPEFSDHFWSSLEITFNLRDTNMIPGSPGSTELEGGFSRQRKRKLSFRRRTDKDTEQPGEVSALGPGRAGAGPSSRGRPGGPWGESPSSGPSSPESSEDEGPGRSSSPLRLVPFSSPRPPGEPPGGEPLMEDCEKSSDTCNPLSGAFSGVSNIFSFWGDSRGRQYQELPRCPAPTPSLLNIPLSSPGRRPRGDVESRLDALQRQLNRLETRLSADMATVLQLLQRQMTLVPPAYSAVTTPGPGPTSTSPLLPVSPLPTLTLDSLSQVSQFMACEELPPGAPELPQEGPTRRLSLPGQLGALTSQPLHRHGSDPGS

Compared with `CCN1CCN(CCCNC(=O)C2CCCN(c3nnc(-n4cccc4)s3)C2)CC1` (centres unmarked), `CCN1CCN(c2ccc(S(=O)(=O)N3CCCCC3)cc2NC(=O)COc2cc(C)ccc2Cl)CC1` is lower in “hERG current change (%, negative = inhibition) at 10uM” value: 1.47% for the first, -14.1% for the second.

Compared with `O=C(NC(=S)N1CCc2ccccc21)c1ccco1`, `O=C(N/C(=C/C=C\c1ccccc1)C(=O)N1CCOCC1)c1ccc(Br)cc1` is lower in “hERG current change (%, negative = inhibition) at 10uM” value: 8.41% for the first, -64.1% for the second.

Compared with `Cc1ccc(OCC(=O)Nc2nc(C)c(Cl)cc2Cl)c([N+](=O)[O-])n1`, `Cc1ccc(OC(C)C(=O)N(C)c2ccccc2)c([N+](=O)[O-])n1` (centres unmarked) is higher in “hERG current change (%, negative = inhibition) at 10uM” value: -1.21% for the first, 2.38% for the second.

Compared with `CCOC(=O)c1c(NC(=O)C(=O)N/N=C/c2ccccc2OC)sc2c1CCCCC2`, `COc1ccccc1/C=C/C(=O)Nc1ccc2c(c1)CCC2` is higher in “hERG current change (%, negative = inhibition) at 10uM” value: -5.51% for the first, 6.71% for the second.

Compared with `Cn1c(Cc2cccc3ccccc23)nnc1SCC(=O)N1CCN(c2cccc(Cl)c2)CC1`, `CC(NC(=O)CN1CCN(c2cccc(Cl)c2)CC1)c1ccccc1` (centres unmarked) is higher in “hERG current change (%, negative = inhibition) at 10uM” value: -25.7% for the first, 4.34% for the second.

First: Cc1[nH]c2ccccc2c1C(=O)CN1C(=O)NC2(CCCCCC2)C1=O
Second: N#CC1=C(N)NC(SCC(=O)c2ccccc2)=C(C#N)C12CCCC2
The “hERG current change (%, negative = inhibition) at 10uM” value of the first is higher: 12.5% for the first, -35.3% for the second.

Going from `COc1ccc(CN2CCCC(C(=O)c3ccc(Cl)cc3)C2)c(OC)c1` (centres unmarked) to `COc1ccc(NC(=O)CN2CCN(CC(=O)Nc3ccc(OC)cc3)CC2)cc1`, the “hERG current change (%, negative = inhibition) at 10uM” value falls from -75.2% to -76.6%.

First: CCc1c(C)nc(SCC(=O)Nc2c(C)n(C)n(-c3ccccc3)c2=O)[nH]c1=O
Second: Cc1ccccc1NC(=O)CSc1nnc(C)c(=O)[nH]1
The “hERG current change (%, negative = inhibition) at 10uM” value of the first is lower: -5.46% for the first, 8.62% for the second.

First: NC(=O)c1nsc(C(=O)N(c2ccccc2)C(C(=O)NC2CCCC2)c2ccncc2)c1N (centres unmarked)
Second: O=C(COc1ccccc1F)Nc1nnc(-c2ccncc2)s1
The “hERG current change (%, negative = inhibition) at 10uM” value of the first is higher: 22.1% for the first, -3.02% for the second.

Compared with `CC(=O)N(/N=C1\Sc2ccccc2C1=O)c1ccc(C)cc1C`, `Cc1cc(=O)oc(C)c1C(=O)Nc1ccccc1F` is lower in “hERG current change (%, negative = inhibition) at 10uM” value: 18% for the first, 5.24% for the second.

Going from `Cc1cc(C(=O)COC(=O)c2cc(Cl)ccc2N)c(C)n1Cc1ccco1` to `O=C(O)Cc1ccc(C(=O)c2ccc(Cl)cc2)s1`, the “hERG current change (%, negative = inhibition) at 10uM” value falls from 19.9% to 18.6%.

Going from `O=C(COC(=O)c1nn(-c2ccccc2C(F)(F)F)cc1O)c1ccc(OC(F)F)cc1` to `Cc1ccc2cccc(OCCCOc3ccccc3F)c2n1.O=C(O)C(=O)O`, the “hERG current change (%, negative = inhibition) at 10uM” value falls from 9.41% to -8.98%.

Compared with `O=C(NCc1cccnc1)C(=O)Nc1nc(-c2ccccc2)cs1`, `O=C(O)c1cc(-c2cccc([N+](=O)[O-])c2)nc2ccccc12` is higher in “hERG current change (%, negative = inhibition) at 10uM” value: -3.98% for the first, 3.98% for the second.

First: Cl.Nc1c2c(nc3ccccc13)CCCC2
Second: c1cncc(CNc2c3c(nc4nnnn24)CCCC3)c1
The “hERG current change (%, negative = inhibition) at 10uM” value of the first is lower: -39.7% for the first, 2.51% for the second.

First: O=C(NCCC(=O)N1CCCC(C(F)(F)F)C1)c1ccccc1Cl (centres unmarked)
Second: Cc1onc(-c2ccccc2Cl)c1C(=O)N1CCCCC1C(=O)O (centres unmarked)
The “hERG current change (%, negative = inhibition) at 10uM” value of the first is lower: 6.81% for the first, 16.1% for the second.

Going from `O=C(CCSCc1ccccc1F)NCc1ccc(F)cc1` to `Fc1ccc(CNc2ccccn2)cc1`, the “hERG current change (%, negative = inhibition) at 10uM” value rises from -4.24% to 8.01%.

Going from `CC1CCN(C(=S)c2ccc(N(C)C)cc2)CC1` to `CCCOC1CCCN(C(=O)c2ccc(OC3CCN(C(=O)COC)CC3)cc2)C1` (centres unmarked), the “hERG current change (%, negative = inhibition) at 10uM” value rises from -5.69% to 25.3%.

Going from `Cc1cc(Cl)cc(Cl)c1OCCCCN(C)C.O=C(O)C(=O)O` to `CCN(CC)S(=O)(=O)c1ccc(OCC(=O)NC(=O)Cc2ccccc2)c([N+](=O)[O-])c1`, the “hERG current change (%, negative = inhibition) at 10uM” value rises from -43.7% to -15.9%.

Going from `COc1ccc(N(CC(=O)NCCSc2ccc(C)cc2)S(=O)(=O)c2ccccc2)c(OC)c1` to `COc1ccc(OC)c(N(CC(=O)NCCc2ccc(OC)c(OC)c2)S(=O)(=O)c2ccccc2)c1`, the “hERG current change (%, negative = inhibition) at 10uM” value falls from -17.4% to -18.3%.

Going from `C/C(=N/NC(=O)c1ccn(C)n1)c1ccncc1` to `COc1ccc(/C=C/C(=O)Nc2ccncc2)cc1OC`, the “hERG current change (%, negative = inhibition) at 10uM” value falls from 13.2% to 11.9%.

First: O=C(O)CCCCCn1c(SCC(=O)c2ccc(O)c(O)c2)nc2ccsc2c1=O
Second: CCc1ccc(NC(=O)CSc2nc(N)c(NC(=O)c3ccc(F)c(F)c3)c(=O)[nH]2)cc1
The “hERG current change (%, negative = inhibition) at 10uM” value of the first is higher: 32.2% for the first, 19% for the second.

Compared with `COC(=O)C1=C(c2ccc(OC)c(OC)c2)C[C@@H]2CC[C@H]1N2C(=O)NCCOc1ccccc1`, `COC(=O)C1=C(C(=O)OC)[C@@H]2N(C)c3ccc(OC)cc3[C@@]23C[C@@H](C(=O)OC)N(S(=O)(=O)c2ccc(OC)cc2)C3=N1` is lower in “hERG current change (%, negative = inhibition) at 10uM” value: 9.93% for the first, -12.4% for the second.

Going from `CS(=O)(=O)c1nc(S(=O)(=O)c2ccc(Cl)cc2)c(NCCN2CCOCC2)s1` to `CC(=O)Nc1nc(S(=O)(=O)c2ccc(C)cc2)c(Cl)s1`, the “hERG current change (%, negative = inhibition) at 10uM” value rises from -31.6% to -8.1%.

First: Cc1ccc(NC(=O)c2cccc(S(=O)(=O)N(C)C3CCCCC3)c2)nc1
Second: CCOc1ccc(OCC)c(NS(=O)(=O)c2ccc3c(c2)CCN3C(=O)C2CCC2)c1
The “hERG current change (%, negative = inhibition) at 10uM” value of the first is lower: -34.7% for the first, 4.11% for the second.

Going from `CN(Cc1nccs1)C(=O)c1ccc(OC2CCN(CCc3ccccc3)CC2)cc1` to `CCOC(=O)c1csc(NC(=O)c2ccc(S(=O)(=O)N3CCCC3)cc2)n1`, the “hERG current change (%, negative = inhibition) at 10uM” value rises from -58.9% to 11.3%.

Compared with `CCOc1ccc(NS(=O)(=O)c2ccc(NC(=S)NC(=O)CC(C)C)cc2)cc1`, `CCOc1ccc(Br)cc1S(=O)(=O)Nc1ccc(C(=O)OCC(=O)Nc2ccc(C#N)cc2)cc1` is lower in “hERG current change (%, negative = inhibition) at 10uM” value: 8.92% for the first, -3.68% for the second.

Compared with `Cc1nn2c3cc(N4CCOCC4)ccc3nc2c2ccccc12`, `N#CC1=C(N2CCOCC2)/C(=C\c2ccccc2)CC1` is lower in “hERG current change (%, negative = inhibition) at 10uM” value: 22.2% for the first, 3.39% for the second.

Going from `C[C@@]12C(=O)Nc3cc(Cl)ccc3C(=O)N1[C@H]1c3ccccc3OC[C@@H]1[C@@H]2c1ccccc1` to `CS(=O)(=O)NN1C(=O)c2ccccc2NC1c1ccccc1O` (centres unmarked), the “hERG current change (%, negative = inhibition) at 10uM” value falls from 26.1% to 20.2%.

First: CCN(C(C)=O)c1nc(CSc2nnc(NC(C)C)s2)cs1
Second: CCn1c(CNC(=O)C23CC4CC(CC(C4)C2)C3)nnc1SCC(=O)Nc1nnc(C)s1
The “hERG current change (%, negative = inhibition) at 10uM” value of the first is lower: -25.4% for the first, 10.4% for the second.

First: CC(=O)C1C(c2cccc(F)c2)c2c(n[nH]c2C)CC1(C)O (centres unmarked)
Second: COc1ccc(-c2[nH]ncc2CNC(C)Cc2cccc(C)n2)cc1F (centres unmarked)
The “hERG current change (%, negative = inhibition) at 10uM” value of the first is higher: 15.7% for the first, -24% for the second.

Compared with `COc1cccc2cc(-c3ccnc(N)n3)oc12`, `CCCc1ncc(C(O)c2cccc(OC)c2)n1C` (centres unmarked) is lower in “hERG current change (%, negative = inhibition) at 10uM” value: 14.7% for the first, -2.18% for the second.

Going from `CCC1CCC(N2CCN(c3ccc(F)cc3)CC2)CC1` (centres unmarked) to `CS(=O)(=O)N1CCN(c2ccccc2NC(=O)c2ccc3c(c2)OCCO3)CC1`, the “hERG current change (%, negative = inhibition) at 10uM” value rises from -52.1% to -10.6%.

Going from `CN(C)CC(O)COc1ccc(-c2ccc(C#N)cc2)cc1` (centres unmarked) to `COc1ccc(OCCCC(=O)Nc2cccc([N+](=O)[O-])c2C)cc1`, the “hERG current change (%, negative = inhibition) at 10uM” value rises from -57.5% to 6.78%.

First: O=C(O)CC1SC(=Nc2ccc(O)cc2)NC1=O (centres unmarked)
Second: CCN(CC)C(=O)c1ccc(NC(=O)C2=C(C)OCCS2)cc1
The “hERG current change (%, negative = inhibition) at 10uM” value of the first is higher: 31.6% for the first, 25.4% for the second.

First: O=C(O)c1cc(S(=O)(=O)N2CCOCC2)ccc1N1CCOCC1
Second: O=C(c1cccc(N2C(=O)C3CC=CCC3C2=O)c1)N1CCCCCC1 (centres unmarked)
The “hERG current change (%, negative = inhibition) at 10uM” value of the first is higher: 8.16% for the first, -3.26% for the second.

Going from `CCN(CC)C(=O)Cn1c(C)c(/C=C/c2cc[n+](C)cc2)c2ccccc21.[I-]` to `CO/N=C/C(c1ccc(Cl)nc1)S(=O)(=O)c1ccccc1` (centres unmarked), the “hERG current change (%, negative = inhibition) at 10uM” value falls from 14.6% to 8.58%.

Compared with `COc1ccc(OC)c(N2C(=NC(=O)C3CCCCC3)SC3CS(=O)(=O)CC32)c1` (centres unmarked), `CCN(C(=O)COC(=O)c1ccc2c(=O)n3c(nc2c1)CCC3)C1CCS(=O)(=O)C1` (centres unmarked) is higher in “hERG current change (%, negative = inhibition) at 10uM” value: -37.7% for the first, 19% for the second.

Compared with `COc1cc(/C=N/NC(=O)c2sc(N)c(C#N)c2C)ccc1O`, `CCOc1cc(-c2c(C)c(CC)nc(N)c2C#N)ccc1O` is lower in “hERG current change (%, negative = inhibition) at 10uM” value: -0.837% for the first, -12.3% for the second.

Going from `O=C(NC(Nc1nc2ccc([N+](=O)[O-])cc2s1)(C(F)(F)F)C(F)(F)F)c1cccnc1` to `CC(C)NC(=O)c1cnc(Sc2ncc(C(F)(F)F)cc2Cl)n1C`, the “hERG current change (%, negative = inhibition) at 10uM” value rises from -14.3% to 5.03%.

First: COc1ccccc1S(=O)(=O)Cc1ccc(C(=O)NC(C)c2ccc3c(c2)OCCO3)o1 (centres unmarked)
Second: O=C(NCC1CCCO1)c1ccc2c(c1)N(Cc1ccc(F)cc1Cl)C(=O)CS2 (centres unmarked)
The “hERG current change (%, negative = inhibition) at 10uM” value of the first is lower: -3.94% for the first, 3.23% for the second.

Compared with `Cc1cc(/C=C2\NC(=O)NC2=O)c(C)n1-c1cccnc1`, `Cc1ccc(-n2cc[nH]c2=S)cc1C` is higher in “hERG current change (%, negative = inhibition) at 10uM” value: 5.67% for the first, 22.7% for the second.

Compared with `CSc1n[nH]c(-c2sccc2OCc2ccc(C)cc2)n1`, `Cc1nnsc1C(=O)Nc1cccc(Cl)c1Cl` is higher in “hERG current change (%, negative = inhibition) at 10uM” value: -29.3% for the first, -17.6% for the second.

First: CNC(=S)N/N=C/c1c(Cl)cccc1Cl
Second: COC(=O)CSc1nc(N2CCOCC2)c2c(c1C#N)CC(C)(C)N(C)C2
The “hERG current change (%, negative = inhibition) at 10uM” value of the first is higher: 15% for the first, 2.3% for the second.

From paper PMC4336329 (PLoS ONE, 2015)
